# Measurements published in the supplement of paper PMC11417369.
# ± gives the standard deviation of the averaged measurements. The list shows a part of the results.
# System: PfAP2-LT AP2 domain (GST-tagged)
# Assay: gcPBM binding intensity (ln(normalized median fluorescence intensity)); higher = stronger DNA binding
# Summary of the method: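 GST-fused DNA-binding domains of P. falciparum, expressed in E. coli, were applied at about 25 μg on average for 1 h to an Agilent 4 × 180k array of primer-extended double-stranded 36-bp intergenic genomic probes and negative controls. Binding intensity is the highest Masliner-normalised natural-log median intensity across replicate spots of either probe orientation, measured with Alexa488 anti-GST antibody and a 488 nm scan.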
row,Sequence,gcPBM binding intensity (ln)
1,GTAAAAAAAAAAAAAAGTACATTATACATATATTTA [XGTACX_site5447],8.47 ± 0.54
2,TGTGTATATAAATAATGTACATATATATTTTTTTAT [XGTACX_site7341],8.62 ± 0.45
3,AACCATAACTCATATGCACACATAAATATTACATAT [CACACA_site9273],9.23 ± 0.48
4,AAAGTATAAATAAATACACACATATATATATATATA [CACACA_site2892],9.78 ± 0.21
5,TGGAGGATAGTTCACAGTACCCAGTAACTCTACGGA [XGTACX_site4930],8.69 ± 0.47
6,TACATTCGGAGTAAAAAAAAATTTATACAATTACTT [XGTACX_negctrl_site29],8.5 ± 0.51
7,GGAAAAATATAATATGCATGTTATTATTTTTTTATA [TGCATGCA_site836],8.49 ± 0.45
8,ACATGTGAATTTTAGGTGCACTTGTAATTTAACATT,8.86 ± 0.42
9,ATATATATATAATGTTGTACATAAATATTATATTTA [XGTACX_site5225],8.55 ± 0.36
10,TTTTTATTTATTCTCTTTGTATTATAAAATAAAAGC [XGTACX_negctrl_site253],8.38 ± 0.45
11,ATATATATATTATATAGTACAGAGTATACTATTATA [XGTACX_site1893],8.71 ± 0.35
12,AACGATATATGTACTACACACATTATGTCATCCTAT [CACACA_site2464],9.37 ± 0.45
13,CAAAAAGGAATGTATGCACACAATTGATTTTAACTC [CACACA_site1468],9.16 ± 0.41
14,GATCTAAAAACAAGGTGTACAAGAAAAAAAAAAAAA [XGTACX_site7577],8.69 ± 0.7
15,ACAAAAGGGGAATACACACACATATATATATATATA [CACACA_site2215],10.33 ± 0.071
16,TATGTATATACATAAACATGCAAAAACAATATCTTA [TGCATGCA_site950],8.83 ± 0.33
17,TATTTATTTATTTAATGTACAAAAGAACAAGAATTT [XGTACX_site2248],8.35 ± 0.38
18,TCTTAATCGTATTATTACTATAATTATATAATATTT [CACACA_negctrl_site1594],8.56 ± 0.5
19,TTCTTCTGTTTTATTACACACCATTTTGTGTATACA [CACACA_site7059],9.25 ± 0.4
20,ATAATGAAAAGAAAGGGTACAAAAAAAAAAAAAAAT [XGTACX_site3350],8.98 ± 0.6
21,TTCTTTTATGATAATTGTACCCTTTTTAAAAAGAAA [XGTACX_site7815],8.16 ± 0.43
22,AACTGATTATTTTTTTGTACATATATAATAATATAT [XGTACX_site5953],8.81 ± 0.45
23,CATAAATAATATATTTGTACGAATAAAATTTGTTCA [XGTACX_site3445],8.46 ± 0.37

row,Sequence,gcPBM binding intensity (ln)
1,TAAAACAATATAAAATGTACAGAATTTTTTTTTCTT [XGTACX_site6820],8.45 ± 0.41
2,TTTTTTTTCAATGGCACACATTTTAGATTTATGCTT [CACACA_site4735],8.94 ± 0.57
3,TATAATATAAAAATGAGTACATAGATAATAATATTT [XGTACX_site2376],8.81 ± 0.42
4,TTTTTTTTTTATTAATGTACAAGATATATAATGTTA [XGTACX_site4809],8.38 ± 0.42
5,ATCTTAATTTTTGAAGGTACACACTAATATATTAAA [XGTACX_site2292],8.57 ± 0.41
6,ATATTTTATTATATAGGTACACATAATTTCATGTAA [XGTACX_site415],8.6 ± 0.42
7,TATATAGTAAATATTTGTACATAATAAAATATATGT [XGTACX_site7873],8.91 ± 0.49
8,TTTTGTACATCTTTTGCACACGTAATGTTATTATAA [CACACA_site1259],9.26 ± 0.42
9,AATAAATAAAAATGCACACAGTTAACATGTTGAATT [CACACA_site4795],9.15 ± 0.42
10,CAATGAAAAATAATGAGTACATAGTTAATAAAGATA [XGTACX_site72],8.88 ± 0.47
11,TTTAAAGTTTTATACACACACCAAAGTTATTCTAAT [CACACA_site6432],8.88 ± 0.38
12,AATTTCTTTTTCGATATACACACTGTATGTGTCTAA [CACACA_site3975],9.29 ± 0.61
13,ATAATTAAAATTAAATGTACTTTTTTATATATTTTT [XGTACX_site2209],8.43 ± 0.55
14,TGCAATATATCAAAGTGTACATGCAATAAAAAAAAA [XGTACX_site652],9.01 ± 0.45
15,AATGATACACATATATGTACATATATATATATATAT [XGTACX_site5391],9.84 ± 0.12
16,TATATACATATATGCACACAAAAAAATATATATTTT [CACACA_site1729],9.02 ± 0.34
17,ATATGGATTATACATACATGCATACATACATACATA [TGCATGCA_site475],8.91 ± 0.36
18,AAAATTTAATATAATGCACACATAAAACAAAAACAA [CACACA_site8071],9.12 ± 0.4
19,AAATGTAGAAAAAGTTGTACACTGTTTCAAAAATAA [XGTACX_site1063],8.64 ± 0.52
20,TTATTTTTCTTTATTGGTACACACGAAAAAAAAATT [XGTACX_site6482],8.47 ± 0.32
21,GCCCACACGAACCATGCATGCCACGATATAAACCAC [TGCATGCA_site322],9.14 ± 0.33
22,TTTTTTACAGAAAAATATTAAAATTATAAATGTGAA [GTGCAC_negctrl_site451],8.07 ± 0.43
23,TATGAAATTTTAATTACACACAGGAAAATAAAATGT [CACACA_site8430],8.95 ± 0.39

row,Sequence,gcPBM binding intensity (ln)
1,TAATATATATATATGGTGCATTTAATTTATATATAA,8.54 ± 0.33
2,AAAAAACAATTTGTGTGTACACATGATACGTTCGAT [XGTACX_site4112],9.39 ± 0.28
3,AAGAAGTGGAAAATATACTCCACATATATATATGTG [CACACA_negctrl_site304],8.72 ± 0.5
4,ATATATATTTTTAATTGTACAGAATTAAAAATATTG [XGTACX_site1967],8.35 ± 0.39
5,AAAAAAAAAAAAAGCTGTACAATTAAAGACAAACCT [XGTACX_site8610],8.94 ± 0.33
6,CTTTAACCATATATGTGTACGTATTTTATTCATATT [XGTACX_site6212],9.11 ± 0.39
7,GTGAGTGAAATATGCAAACACACACCCGAAAAATGT [CACACA_site3197],9.61 ± 0.38
8,TATAAAGGTATACAAAGTACAAAATACATATATACT [XGTACX_site6431],9.02 ± 0.42
9,TATGATTTTAATGAAACACACAATTTTATGTTAATA [CACACA_site311],8.47 ± 0.42
10,TAAAGTTTTTCCTATCTATATTTATATTATAAATGA [XGTACX_negctrl_site20],8.24 ± 0.42
11,CAAATAATATTATGAAGTACTTCAAATTTTGAAAGA [XGTACX_site2530],8.54 ± 0.5
12,TTTAATATTATTATTTTACACACTTTTTTCCTTTTA [CACACA_site8780],8.79 ± 0.62
13,AATATAGGTATATCCACACACATATTTATATTTATA [CACACA_site6867],9.14 ± 0.38
14,TCTTATAAACTCTGCACACATAATATATTAAATGAG [CACACA_site1936],8.91 ± 0.3
15,TGTGTATAAGTCACTTGTACTAGTAGTAAAAAAAAA [XGTACX_site4341],8.87 ± 0.56
16,TAATATATGTTATATACACACATATAAATATAAATA [CACACA_site6339],8.97 ± 0.28
17,TGAAGTATAATTTATCTAATATGTTATATTTTATTT [TGCATGCA_negctrl_site56],8.43 ± 0.6
18,ATATTAATTTCTCATGCATGTTCTACCCAATTGTAA [TGCATGCA_site355],8.93 ± 0.43
19,AAAATCTAATATAATGCACACATAAAAAAAAATCAA [CACACA_site9211],9.02 ± 0.57
20,TTTTGTTATTATGAAGTGCATTTATGTTCATGTCTA,8.77 ± 0.4
21,AAAAAAAAAAAAAATTCACACAAGACTACTACATTT [CACACA_site4195],8.71 ± 0.4
22,ATATATGACTAATAAAGTACATACTTCATATAATTA [XGTACX_site6699],8.72 ± 0.4
23,AATATTAAAAACAAAACACACAAAAAAAAATAAAAT [CACACA_site702],9.03 ± 0.58

row,Sequence,gcPBM binding intensity (ln)
1,ACCCTTTTATATAAGAGTACAAACGTATTATTAAAT [XGTACX_site2221],8.64 ± 0.42
2,TATATTATATATATACTGCACTGTTTTACAAAATTA,8.76 ± 0.38
3,GTAGTGGTTGAATATACACACATATATATATATATA [CACACA_site2651],9.87 ± 0.28
4,AACGTGTATTTATATTGTACACATTCATACATCAAA [XGTACX_site3644],8.81 ± 0.35
5,AGATAATAGGTTACTTGTACATATAAATAAATATAT [XGTACX_site158],8.71 ± 0.45
6,TATATAAATAAACACACACACACCTTATAATTATTA [CACACA_site9345],9.775 ± 0.078
7,CTTGTCATTTGGCACACACACATGTATAGGTTATTA [CACACA_site5656],9.54 ± 0.29
8,TGAATAAATCAAAGCACACATACACAGACATATATA [CACACA_site4316],9.36 ± 0.36
9,AACAGATAATATAAAAAAAAAAAAAAAAATAATTAA [GTGCAC_negctrl_site69],8.55 ± 0.58
10,TTTTAGTTATTGTATTATTATTAATATATAATATCT [CACACA_negctrl_site1528],8.59 ± 0.53
11,CTAAAATGTAAAAACGCACACATAATATTATAAAAA [CACACA_site2788],9.26 ± 0.42
12,AAAGCATGTTAATATGTATAAATACTGATCATTCAC [GTGCAC_negctrl_site576],8.8 ± 0.39
13,TATATATATATATATGTACACACATCAATCATATTA [CACACA_site8594],9.54 ± 0.18
14,GAATAAATAATTAACACACACAATCTTTTTTTTTTT [CACACA_site3140],9.12 ± 0.3
15,TCACTTTTTATTAAATGTACATGCTTTCATTTTCAT [XGTACX_site8139],8.98 ± 0.52
16,AAAAAAAAAATAAAATAAAATATATTATATATATTA [GTGCAC_negctrl_site431],8.25 ± 0.67
17,CCACAGGATTGGTTCAAACACACATATTATATGACT [CACACA_site661],8.93 ± 0.39
18,TATTTTTTTTTTTTTTGTACACATAATTGTAATCGT [XGTACX_site8415],8.82 ± 0.43
19,CATATAAAAATGTGCACACACACACCGATATATATT [CACACA_site4940],9.95 ± 0.17
20,TGTACGAGTCGTAGAGTGCAGTCTGGAGAAAAGTAC [GTGCAC_site9683],9.13 ± 0.4
